Consider 103 sequences from article PMC5892938.

Some of the results follow. Construct or isoform of the protein are uncertain.

This experiment deals with GST-SBP-ILF3 (Homo sapiens) (UniProt Q12906). Description: targeted RNA Bind-n-Seq. The conditions noted are these: RBNS binding buffer: 25 mM Tris pH 7.5, 150 mM KCl, 3 mM MgCl2, 0.1% Tween, 0.5 mg/mL BSA, 1 mM DTT; 27 nM protein, 750 pM RNA pool; temperature not stated; high values mean tight binding; sequences stand for … in GGGUAAAAGCGAGGUGAA…CGGGACAAGUAUUAUGGG
Consider “UUUUUUUUUUGAGACGGAUUCCGUUUCCAG [tttttgagapaired]”, for which the binding signal (log2 fold change) was determined as 0.56.
Under “GUGUGUUGUGUUGGCGCCUAACACAGCACA [gtspaired]” stands -0.214; under “GGUGGUUGUGUUGGUGCCUAACACAGCCGC [gtspaired]”, -0.587; under “UUUUUUUUUUGAGAAGGACCCCUUCUCCAG [tttttgagapaired]”, 0.247.
As for “UUCUCUCUUCCUCCGCUGGAGGAGGGGAGA [ctspaired]”, the binding signal (log2 fold change) is -0.309.
As for “UUUUUUUUUUGAGAGGGUCUCCCUUUCCAG [tttttgagapaired]”, the figure is 0.362; as for “UUUUUUUUUUGAGACGGUUGCCGUCUCCGG [tttttgagapaired]”, 0.508; as for “GUUGUGUGUGUUGGAACCUAACACACACAG [gtspaired]”, -0.716.
As for “GUGGUUGGUGUUGGACUCUAACACCGACCG [gtspaired]”, the figure is -0.38; as for “UUUUUUUUUUGAGACGGACGCUGUCUCCUA [tttttgagapaired]”, 0.859; as for “UUUUUUUUUUGAGACUGCUACAGUCUUCUA [tttttgagapaired]”, 0.247.
As for “UUUUUUUUUUGAGAGGGAAUCCCUCUUCUG [tttttgagapaired]”, the figure is 0.105; as for “UUUUUUUUUUGAGACGGCAACCGUCUUCUG [tttttgagapaired]”, 0.482; as for “UUUUUUUUUUGAGAUGGCGUCCAUCUUCUG [tttttgagapaired]”, 0.803.
As for “UUUUUUUUUUGAGAUCGACGCGAUCUCCGG [tttttgagapaired]”, the binding signal (log2 fold change) is 0.539.
Under “GUGUGUUGUGUUGGUUCCUAACACAGCGCG [gtspaired]” stands -0.563; under “UUUUUUUUUUGAGACCGAAUCGGUCUCCUG [tttttgagapaired]”, 0.527; under “GUGGUUGGUGUUGGAGUCUAACACCGACUA [gtspaired]”, -0.36.
Under “UUUUUUUUUUGAGAUGGCAGCCAUCUUCUG [tttttgagapaired]” stands 0.646; under “GGUUGGUGUGUUGGCACCUAACACAUCAGC [gtspaired]”, -0.625; under “UUUUUUUUUUGAGAGCGUGGCGCUCUCCAG [tttttgagapaired]”, 0.118.
With “UUUUUUUUUUGAGAGGGUAACCCUCUCCGG [tttttgagapaired]”, the binding signal (log2 fold change) came out at 0.188.
Under “UUUUUUUUUUGAGAGCGGAACGUUCUCCUA [tttttgagapaired]” stands -0.114; under “GUGGUGUGUGUUGGUGCCUAACACACAUCG [gtspaired]”, -0.82; under “UUUUUUUUUUGAGAACGAUACGUUCUUCUA [tttttgagapaired]”, -0.0494.
As for “GGUGGUGGUGUUGGCCCCUAACACCGCCGC [gtspaired]”, the binding signal (log2 fold change) was found to be 0.0413.
As for “UUUUUUUUUUGAGACUGAGGCAGUCUCCGG [tttttgagapaired]”, the figure is 0.441; as for “UUUUUUUUUUGAGACGGCCGCCGUCUCCUG [tttttgagapaired]”, 1.01; as for “UUUUUUUUUUGAGACCGUAGCGGUCUCCGG [tttttgagapaired]”, 0.832.
Turning to “GUUGGUGGUGUUGGACCCUAACACCAUCAA [gtspaired]”, the binding signal (log2 fold change) was -0.423.
Under “UUUUUUUUUUGAGACUGAGUCAGUUUCCUA [tttttgagapaired]” stands 0.366.
Under “UUUUUUUUUUGAGAUGGGCACUAUCUCCGG [tttttgagapaired]” stands 0.467; under “UUUUUUUUUUGAGACUGAUUCAGUCUCCAG [tttttgagapaired]”, 0.0135; under “UUUUUUUUUUGAGACUGGAUCAGUCUCCUA [tttttgagapaired]”, 0.363.
“GUGUGGUGUGUUGGUACCUAACACAUCACG [gtspaired]”: the binding signal (log2 fold change) was -0.619.
Under “UUUUUUUUUUGAGAUGGGCCCCAUCUCCAG [tttttgagapaired]” stands 0.93; under “UUUUUUUUUUGAGAGGGUAGCCCUCUCCUA [tttttgagapaired]”, 0.622; under “UUUUUUUUUUGAGAUCGUGCCGAUCUCCAG [tttttgagapaired]”, 0.681.
Under “UUUUUUUUUUGAGAGGGACUCCCUCUUCUG [tttttgagapaired]” stands 0.338; under “UUUUUUUUUUGAGAGCGGCGCGCUCUCCAG [tttttgagapaired]”, 0.51.
As for “GUGUGUUGUGUUGGCACCUAACACAACACG [gtspaired]”, the figure is -0.257; as for “GGUGGUUGUGUUGGAGUCUAACACAGCUAC [gtspaired]”, -0.389.
As to “GGUGGUUGUGUUGGAGCCUAACACAGCCGC [gtspaired]”, the binding signal (log2 fold change) was -0.407.
Under “GGUGGUGGUGUUGGCACCUAACACCAUCGC [gtspaired]” stands -0.605; under “UUUUUUUUUUGAGACGGCAUCCGUCUCCAG [tttttgagapaired]”, 0.599; under “UUUUUUUUUUGAGAGGGAAACCCUUUCCGG [tttttgagapaired]”, 0.0673.
Under “GUGGUGUGUGUUGGACCCUAACACACAUCA [gtspaired]” stands -0.536.
Under “UUUUUUUUUUGAGAUCGAUGCGAUCUUCUG [tttttgagapaired]” stands 0.379; under “UUUUUUUUUUGAGAGGGAGUCCCUCUCCUG [tttttgagapaired]”, 0.595; under “UUUUUUUUUUGAGACCGGAACGGUCUCCAG [tttttgagapaired]”, 0.333.
As for “UUUUUUUUUUGAGAUGGGGGCUAUCUCCUG [tttttgagapaired]”, the binding signal (log2 fold change) came out at 0.745.
As for “GUGUGUUGUGUUGGUACCUAACACAGCGCA [gtspaired]”, the figure is -0.792; as for “GUGGUGUGUGUUGGAGCCUAACACACAUCA [gtspaired]”, -0.313; as for “UUUUUUUUUUGAGACUGGGCCAGUCUCCGG [tttttgagapaired]”, 0.57.
Under “GGUGUUGGUGUUGGCCUCUAACACCGACGC [gtspaired]” stands -0.271; under “UUUUUUUUUUGAGACUGCGUCAGUCUUCUG [tttttgagapaired]”, 0.614.
As for “UUUUUUUUUUGAGACCGGAUCGGUCUUCUA [tttttgagapaired]”, the figure is 0.254; as for “UUUUUUUUUUGAGAGCGAUACGUUCUUCUA [tttttgagapaired]”, 0.359.
“UUUUUUUUUUGAGACUGCUCCAGUCUCCUG [tttttgagapaired]”: the binding signal (log2 fold change) stood at 0.993.
Under “UUUUUUUUUUGAGAACGGAUCGUUCUUCUA [tttttgagapaired]” stands 0.0338.
Under “UUUUUUUUUUGAGAGCGAAUCGUUCUCCAG [tttttgagapaired]” stands 0.133.
As for “UUUUUUUUUUGAGACUGUAUCAGUUUCCUA [tttttgagapaired]”, the figure is 0.285; as for “UUUUUUUUUUGAGAUCGGAGCGAUCUUCUG [tttttgagapaired]”, 0.349; as for “GUUGGUGGUGUUGGUGUCUAACACCGCCAG [gtspaired]”, -0.556.
In the case of “GUGUUGUGUGUUGGACUCUAACACACAGCA [gtspaired]”, the binding signal (log2 fold change) was -0.799.
As for “UUUUUUUUUUGAGAUGGUUUCCAUUUCCUA [tttttgagapaired]”, the figure is 0.275; as for “UUCUUCCUUCCUCCGCUGGAGGAGGGGAGA [ctspaired]”, -0.319.
Under “GGUGUGUGUGUUGGCGCCUAACACAUACAC [gtspaired]” stands -0.552; under “GUGUGGUGUGUUGGCUUCUAACACACCAUA [gtspaired]”, -0.473; under “UUUUUUUUUUGAGACGGAGUCUGUCUUCUA [tttttgagapaired]”, 0.124.
As for “GUGGUUGGUGUUGGUCUCUAACACCAGCCG [gtspaired]”, the figure is -0.546.
With “UUUUUUUUUUGAGACGGCAACCGUCUUCUA [tttttgagapaired]”, the binding signal (log2 fold change) came out at 0.302.
Under “UUUUUUUUUUGAGAUGGGAACCAUCUCCAG [tttttgagapaired]” stands 0.397; under “UUUUUUUUUUGAGAUGGCGGCCAUCUCCAG [tttttgagapaired]”, 0.677.
With “UUUUUUUUUUGAGAGCGGUGCGCUCUCCUA [tttttgagapaired]”, the binding signal (log2 fold change) came to 0.197.
As for “GUGUGUUGUGUUGGCGCCUAACACAACGCA [gtspaired]”, the figure is -0.0118; as for “GUGUGUGGUGUUGGCACCUAACACCAUACA [gtspaired]”, -0.272.
As for “GGUGGUGGUGUUGGUACCUAACACCGCUAC [gtspaired]”, the binding signal (log2 fold change) was -0.369.
Under “UUUUUUUUUUGAGAUGGGUGCCAUCUCCUA [tttttgagapaired]” stands 0.363; under “UUUUUUUUUUGAGAGCGGGACGCUCUUCUA [tttttgagapaired]”, -0.036.
As for “UUUUUUUUUUGAGAGUGAAGCACUCUCCUG [tttttgagapaired]”, the figure is 0.212.
Under “UUUUUUUUUUGAGACUGUGGCAGUUUCCUA [tttttgagapaired]” stands 0.685; under “UUUUUUUUUUGAGACUGGGGCAGUUUCCUA [tttttgagapaired]”, 0.844.
Regarding “UUUUUUUUUUGAGAGCGUAUCGUUCUCCUG [tttttgagapaired]”, the binding signal (log2 fold change) was found to be 0.364.
Under “UUUUUUUUUUGAGAGCGAUGCGCUCUCCUA [tttttgagapaired]” stands -0.221; under “GGUGGUUGUGUUGGAAUCUAACACAGCCGC [gtspaired]”, -0.358.
Under “UUUUUUUUUUGAGACUGUGACAGUCUCCUA [tttttgagapaired]” stands 0.248.
Turning to “GGUGGUGGUGUUGGUUCCUAACACCGCUAC [gtspaired]”, the binding signal (log2 fold change) is -0.683.
Under “UUUUUUUUUUGAGAGCGGUCCGUUCUCCGG [tttttgagapaired]” stands 0.666; under “GUGUGUGGUGUUGGCGCCUAACACCACGCG [gtspaired]”, -0.198.
Under “UUUUUUUUUUGAGAUGGUGACUAUCUCCUG [tttttgagapaired]” stands 0.711.
Under “GGUUGUUGUGUUGGCGUCUAACACAACAGC [gtspaired]” stands -0.588; under “UUUUUUUUUUGAGAUGGCCACCAUCUCCAG [tttttgagapaired]”, 0.765; under “UUUUUUUUUUGAGACGGACACUGUCUCCUG [tttttgagapaired]”, 0.9.
Regarding “GGUUGUGGUGUUGGCUUCUAACACCGCGAC [gtspaired]”, the binding signal (log2 fold change) is -0.605.
Under “UUCCUCCUUCCUCCGCCGGAGGGAGGGGGA [ctspaired]” stands -0.333; under “UUUUUUUUUUGAGACUGAACCAGUCUUCUG [tttttgagapaired]”, 0.126; under “GUGUGGUGUGUUGGUACCUAACACAUCGCG [gtspaired]”, -0.653.
As for “GGUGUGUGUGUUGGAGUCUAACACAUAUAC [gtspaired]”, the figure is -0.899; as for “UUUUUUUUUUGAGAGUGACGCAUUCUCCAG [tttttgagapaired]”, 0.417.
Under “UUUUUUUUUUGAGAUCGAAUCGAUCUCCAG [tttttgagapaired]” stands 0.0273.
On to “UUUUUUUUUUGAGAUGGUAACCAUCUCCAG [tttttgagapaired]”, for which the binding signal (log2 fold change) is 0.0427.
As for “UUUUUUUUUUGAGAGCGAGUCGCUCUCCUG [tttttgagapaired]”, the figure is 0.255.
